For 37 sequences, binding signal (log2 fold change) results are on record in publication PMC5892938.

This is one part of the list. At the low end of the ranking the order means little.

This assay addresses GST-SBP-SLBP (stem-loop binding protein) (UniProt Q14493). Description: targeted RNA Bind-n-Seq.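 Note: DESeq read counts versus GST-SBP nonspecific binding control pulldown.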 The note with it: RBNS binding buffer: 25 mM Tris pH 7.5, 150 mM KCl, 3 mM MgCl2, 0.1% Tween, 0.5 mg/mL BSA, 1 mM DTT; 27 nM protein, 750 pM RNA pool; temperature not stated; high values mean tight binding.
On to “GGUCACGUCUCAAUCAACUCAUCUUCAGGAGUUUACUCCUGUUAUCUCAACAGCUCGCAGUCAAG”, for which the binding signal (log2 fold change) stood at 0.106.
Regarding “GGUCACGUCUCAAUCAACUCAACUUCAGGAGUUUGCUCCUGCUUUUUCAACAGCUCGCAGUCAAG”, the binding signal (log2 fold change) is -0.0543.
To “GGUCACGUCUCAAUCAACUCUACUUCAGGAGUUUUCUCCUGUAAUCUCAACAGCUCGCAGUCAAG” belongs 0.0687; to “GGUCACGUCUCAAUCAACUCAUCCUCAGGAGUUUGCUCCUGUUUAUUCAACAGCUCGCAGUCAAG”, 0.187.
Regarding “GGUCACGUCUCAAUCAACUCAACUCCAGGAGUUUCCUCCUGCAUUUUCAACAGCUCGCAGUCAAG”, the binding signal (log2 fold change) was 0.145.
For “GGUCACGUCUCAAUCAACUCUAGUCCAGGAGUUUCCUCCUGCUUAUUCAACAGCUCGCAGUCAAG”, the binding signal (log2 fold change) is -0.147.
To “GGUCACGUCUCAAUCAACUCAUCGUCAGGAGUUUCCUCCUGUUAAUUCAACAGCUCGCAGUCAAG” belongs 0.0271.
For the sequence “GGUCACGUCUCAAUCAACUCUAUAGAGGGGGGGAAAACCCCUUUGCCCUCCACAUCAACAGCUCGCAGUCAAG”, the binding signal (log2 fold change) is -0.206.
For the sequence “GGUCACGUCUCAAUCAACUCAACUUCAGGAGUUUUCUCCUGCUUUCUCAACAGCUCGCAGUCAAG”, the binding signal (log2 fold change) was -0.11.
To “GGUCACGUCUCAAUCAACUCUACUCCCAGGGAAACCCCUGGUUUUCUCAACAGCUCGCAGUCAAG” belongs 0.0669.
Take “GGUCACGUCUCAAUCAACUCAUUUCCAGGAGUUUUCUCCUGUUAACUCAACAGCUCGCAGUCAAG”: the binding signal (log2 fold change) turned out to be 0.0261.
For the sequence “GGUCACGUCUCAAUCAACUCAUGUCCAGGAGUUUCCUCCUGUUAUUUCAACAGCUCGCAGUCAAG”, the binding signal (log2 fold change) was 0.0938.
Consider “GGUCACGUCUCAAUCAACUCUUUCUCCAGGGAAACCCCUGGUAUAUUCAACAGCUCGCAGUCAAG”, for which the binding signal (log2 fold change) was -0.0647.
In the case of “GGUCACGUCUCAAUCAACUCUUCCCCCAGGGAAAUCCCUGGUAAUGUCAACAGCUCGCAGUCAAG”, the binding signal (log2 fold change) amounted to 0.109.
Regarding “GGUCACGUCUCAAUCAACUCAAUCUCCAGGGAAACCCCUGGUUUAUUCAACAGCUCGCAGUCAAG”, the binding signal (log2 fold change) was -0.129.
In the case of “GGUCACGUCUCAAUCAACUCCCUCGAGGGGGGGAAAACCCCUUUACCCUCAUAUUCAACAGCUCGCAGUCAAG”, the binding signal (log2 fold change) is -0.453.
As for “GGUCACGUCUCAAUCAACUCUAUCGAGGGGGGGAAAACCCCUUUACCCUCAUCGUCAACAGCUCGCAGUCAAG”, the binding signal (log2 fold change) is -0.193.
Turning to “GGUCACGUCUCAAUCAACUCAUCGCCAGGAGUUUCCUCCUGUUAUCUCAACAGCUCGCAGUCAAG”, the binding signal (log2 fold change) was 0.00295.
As for “GGUCACGUCUCAAUCAACUCAAUUCCCAGGGAAAUCCCUGGCUUAUUCAACAGCUCGCAGUCAAG”, the binding signal (log2 fold change) worked out at 0.0452.
Consider “GGUCACGUCUCAAUCAACUCUUCUCCAGGAGUUUUCUCCUGUUAUGUCAACAGCUCGCAGUCAAG”, for which the binding signal (log2 fold change) was 0.0611.
For “GGUCACGUCUCAAUCAACUCAACUCCAGGAGUUUUCUCCUGCUAUGUCAACAGCUCGCAGUCAAG”, the binding signal (log2 fold change) is 0.0483.
Consider “GGUCACGUCUCAAUCAACUCAAUUCCCAGGGAAAUCCCUGGUUUAUUCAACAGCUCGCAGUCAAG”, for which the binding signal (log2 fold change) was -0.125.
To “GGUCACGUCUCAAUCAACUCUAUCUCAGGAGUUUUCUCCUGCUAUGUCAACAGCUCGCAGUCAAG” belongs 0.203; to “GGUCACGUCUCAAUCAACUCUAUCCCAGGAGUUUUCUCCUGUUUUCUCAACAGCUCGCAGUCAAG”, 0.172; to “GGUCACGUCUCAAUCAACUCUAUUCCAGGAGUUUUCUCCUGCUUUUUCAACAGCUCGCAGUCAAG”, -0.0627.
On to “GGUCACGUCUCAAUCAACUCAUCUUCAGGAGUUUGCUCCUGUUAUCUCAACAGCUCGCAGUCAAG”, for which the binding signal (log2 fold change) is -0.0237.
To “GGUCACGUCUCAAUCAACUCUACUUCAGGAGUUUCCUCCUGUAAUUUCAACAGCUCGCAGUCAAG” belongs -0.0717.
To “GGUCACGUCUCAAUCAACUCUUCCUCAGGAGUUUUCUCCUGCUUACUCAACAGCUCGCAGUCAAG” belongs 0.157.
To “GGUCACGUCUCAAUCAACUCAAUCCCCAGGGAAACCCCUGGCUUUUUCAACAGCUCGCAGUCAAG” belongs 0.176; to “GGUCACGUCUCAAUCAACUCACAUGAGGGGGGGAAAACCCCUUUACCCUCUACAUCAACAGCUCGCAGUCAAG”, -0.45; to “GGUCACGUCUCAAUCAACUCUCUAGAGGGGGGGAAAACCCCUUUUCCCUCAAAAUCAACAGCUCGCAGUCAAG”, -0.174.
Regarding “GGUCACGUCUCAAUCAACUCCCAAGAGGGGGGGAAAACCCCUUUACCCUCCACGUCAACAGCUCGCAGUCAAG”, the binding signal (log2 fold change) was 0.0362.
Take “GGUCACGUCUCAAUCAACUCAGUCUCAGGAGUUUCCUCCUGCUUUCUCAACAGCUCGCAGUCAAG”: the binding signal (log2 fold change) is -0.147.
On to “GGUCACGUCUCAAUCAACUCUACUUCCAGGGAAACCCCUGGCGUUUUCAACAGCUCGCAGUCAAG”, for which the binding signal (log2 fold change) was -0.0329.
With “GGUCACGUCUCAAUCAACUCAGUUCCAGGAGUUUCCUCCUGUAUUUUCAACAGCUCGCAGUCAAG”, the binding signal (log2 fold change) turned out to be 0.133.
For the sequence “GGUCACGUCUCAAUCAACUCUUAAGAGGGGGGGAAAACCCCUUUGCCCUCCAAAUCAACAGCUCGCAGUCAAG”, the binding signal (log2 fold change) was -0.0684.
“GGUCACGUCUCAAUCAACUCUAUCCCCAGGGAAAGCCCUGGUUAAUUCAACAGCUCGCAGUCAAG”: the binding signal (log2 fold change) came to 0.217.
